Drawing on PubChem BioAssay AID463173 (ICCB-Longwood Screening Facility, Harvard Medical School, 2010), this text covers survival for 57 compounds.

Screen size: about 52,000 compounds; about 1,700 (3.3%) were called active. Cut-off read from the data, not from the text of the source: active = survival mostly below about 52% (no sharp cut-off); inactive = mostly above about 56%. The list shows a part of the results.

The test system of the assay is Wild type. Description: growth inhibition of S. aureus wild type versus tarO mutant, primary screen, teichoic acid synthesis inhibitors, RN4220, OD600 (AID 463173). The conditions noted are these: S. aureus RN4220 wild type/DeltatarO growth, OD600, 18 h, active compounds read low, screened at 18.75 µg/mL (by protocol).
On to `CC(C)C(=O)N1CCC(c2nc(-c3ccc(F)cc3)no2)CC1`, for which the survival is inactive: 111%.
Then `COc1cc(OC)c(NC(=O)C2CCN(S(=O)(=O)c3ccc4c(c3)oc(=O)n4C)CC2)cc1Cl`, with inactive: 88%; and `COc1ccc2c(CNCCc3cccs3)c(C(=O)O)n(Cc3cccc(F)c3)c2c1`, with inactive: 60%; and `COc1ccc(NCc2nnc(SCC(=O)c3ccc(C)cc3)o2)cc1`, with inactive: 108%.
Then `Nc1c(C(=O)NCc2ccc(Cl)cc2)sc2nc(-c3ccc(F)cc3)ccc12`, with inactive: 98%; and `CCc1ccc(Nc2sc(C(=O)c3ccc(F)cc3)c(N)c2S(=O)(=O)c2ccccc2)cc1`, with inactive: 86%; and `Nc1nnc(SCC(=O)NC2CCCCC2)s1`, with inactive: 86%.
Consider `COc1ccc(OC)c(NC(=O)CCNS(=O)(=O)c2ccc3c(c2)oc(=O)n3C)c1`, for which the survival is inactive: 86%.
Then `COCCn1c(N)cc(=O)[nH]c1=S`, with inactive: 107%; and `COc1cc(NC(=O)C2Cc3ccccc3N2C(=O)c2ccccc2)cc(OC)c1` (configuration not stated), with inactive: 74%.
Then `Cc1cccc(C(=O)NNc2ncnc3c2cnn3-c2ccc(C)c(Cl)c2)c1`, with inactive: 65%; and `Cc1ccc(-c2nc(CS(=O)CC(=O)NCCc3ccc(Cl)cc3)c(C)o2)cc1` (configuration not stated), with inactive: 75%.
Consider `CC(CNC(=O)CCCn1c(=O)c2cccn2c2ccc(F)cc21)c1ccccc1` (configuration not stated), for which the survival was inactive: 38%.
Then `CCOc1ccc(-n2nc(CO)c(C(=O)NCC(C)O)n2)cc1` (configuration not stated), with inactive: 81%.
As for `COc1ccc(OCCn2nnc3sc4c(c3c2=O)CCCC4)cc1`, the survival was inactive: 81%.
Then `COC(=O)c1cc2sccc2n1CC(=O)Nc1cc(Cl)ccc1OC`, with inactive: 93%; and `CCOc1ccc(NCc2n[nH]c(=S)n2-c2ccc(C)cc2)cc1`, with inactive: 122%.
Then `COc1ccc(N2CCN(c3ncnc4c3nnn4C)CC2)cc1`, with active: -2%.
Then `CCC(=O)N1c2ccccc2CC1C(=O)N1CCN(c2ccccc2F)CC1` (configuration not stated), with inactive: 69%; and `Cc1ccc(NC(=O)Cn2c(=O)n(CCCCC(=O)NCc3ccc4c(c3)OCO4)c(=O)c3ccccc32)cc1`, with inactive: 98%; and `CCOC(=O)C1CCN(c2ncnc3c2c(-c2ccccc2)cn3-c2ccc(Cl)cc2)CC1`, with inactive: 68%.
With `CCOC(=O)c1c(C)[nH]c(C)c1S(=O)(=O)NCC(=O)NCc1ccccc1C`, the survival was inactive: 134%.
Then `CCOc1ccccc1CNS(=O)(=O)c1cc(-c2onc(C)c2C)ccc1OC`, with inactive: 55%; and `N#Cc1c(C(F)(F)F)cc(-c2cccs2)nc1SCc1ccccc1F`, with inactive: 51%.
Then `CCOc1ccccc1Oc1nc(C)nc2c1oc1ccccc12`, with inactive: 130%; and `Clc1ccccc1CSc1nc(NCCc2ccccc2)c2ccccc2n1`, with inactive: 53%.
Then `Cc1nnnn1CCC(=O)NC(C)c1ccccc1` (configuration not stated), with inactive: 120%.
Turning to `CCOc1ccccc1Nc1sc(C(=O)c2ccc(Cl)cc2)c(N)c1S(=O)(=O)c1ccccc1`, the survival was inactive: 19%.
Then `O=C(CSc1ncc2c(n1)-c1ccccc1N(Cc1ccc(Cl)cc1)S2(=O)=O)c1ccccc1`, with inactive: 148%; and `CCOc1ccc(NC(=O)CCc2nnc3n(C)c(=O)c4sccc4n23)cc1`, with inactive: 166%.
Then `CCN(Cc1ccccc1)C(=O)Cn1ncc2c(=O)oc3ccc(C)cc3c21`, with inactive: 100%.
Then `Cc1cccc(N2CCN(C(=O)c3ccc4c(c3)N(Cc3cccc(Cl)c3)C(=O)c3ccccc3S4(=O)=O)CC2)c1C`, with inactive: 124%; and `CCC(C(=O)NC1CCCCC1)n1c(SCc2cccc(F)c2)nc2ccncc21` (configuration not stated), with inactive: 124%; and `CC1(C)CC(CC#N)(Cc2ccccc2)CCO1` (configuration not stated), with inactive: 122%.
Regarding `COc1ccccc1NC(=O)Cn1ccn(-c2cc(C)cc(C)c2)c(=O)c1=O`, the survival is inactive: 85%.
Then `Cc1ccc(S(=O)(=O)C(CNS(=O)(=O)c2ccc(F)c(C(F)(F)F)c2)c2ccco2)cc1` (configuration not stated), with inactive: 81%; and `CCOc1ccc(CNCc2c(C(=O)O)n(Cc3ccccc3C)c3cc(OC)ccc23)cc1OC`, with inactive: 114%.
Then `O=C(NCc1ccc2c(c1)OCO2)C1CCN(c2ncccn2)CC1`, with inactive: 103%; and `CC(CNC(=O)C1CCN(C(=O)c2cc3sccc3n2C)CC1)c1ccccc1` (configuration not stated), with inactive: 82%; and `Cc1ccc(Cl)cc1Nc1nn2c(=O)c3ccc(C(=O)NC(C)c4ccccc4)cc3nc2s1` (configuration not stated), with inactive: 119%.
Then `COc1ccccc1CNC(=O)CCc1c(C)nn(-c2ccc(N3CCCCC3)nn2)c1C`, with inactive: 97%; and `Cn1nc(C(=O)NCc2ccccc2)c2c1-c1ccccc1S(=O)(=O)C2`, with inactive: 85%; and `Cc1ccc(Cl)cc1N1CCN(C(=O)CCS(=O)(=O)c2ccc3c(c2)oc(=O)n3C)CC1`, with inactive: 73%.
With `CCOc1ccc(-n2c(=O)c3c(C)c(C(=O)N(C)C)sc3n(Cc3cc(C)ccc3C)c2=O)cc1`, the survival was active: -3%.
Then `Cc1ccc(S(=O)(=O)C(CNC(=O)C(=O)NCc2ccc(Cl)cc2)c2ccco2)cc1` (configuration not stated), with inactive: 120%; and `COC(=O)/C(C#N)=C\c1c[nH]c2ccccc12`, with inactive: 130%; and `CCOc1ccccc1CNC(=O)c1oc2ccc3c(c2c1C)C(=O)CC(C)(C)O3`, with inactive: 39%.
Then `O=c1c2sc3ccccc3c2n(Cc2ccc(F)cc2Cl)c(=O)n1Cc1ccccc1`, with inactive: 66%; and `CCCC(OC(=O)CN1C(=O)COc2ccccc21)C(=O)NC1CCCC1` (configuration not stated), with inactive: 102%.
Then `CN(C(=O)CSc1nc2ccccc2n1Cc1ccccc1C#N)c1ccccc1`, with inactive: 64%; and `CCOc1ccc(-c2nc3cc(NC(=O)COc4cccc(C)c4)ccc3o2)cc1`, with inactive: 128%.
Turning to `CCn1cc(S(=O)(=O)c2ccc(Cl)cc2)c(=O)c2cc(F)c(N3CCOCC3)cc21`, the survival was inactive: 75%.
As to `CCN(CC)S(=O)(=O)c1ccc(N2CCCCS2(=O)=O)cc1`, the survival is inactive: 71%.
Then `Cc1ccc(Nc2nc(C(=O)N3CCC(C(=O)NCCN4CCOCC4)CC3)cs2)cc1`, with inactive: 103%; and `Cc1ccc2onc(CNC(=O)N3CCN(c4cccc(C(F)(F)F)c4)CC3)c2c1`, with inactive: 96%; and `Cc1ccc(CNC(=O)CN2C(=O)CCc3cc(S(=O)(=O)N4CCCCC4)ccc32)cc1`, with inactive: 91%.
In the case of `COC(=O)c1ccc2nc(C)cc(Nc3cccc(Cl)c3C)c2c1`, the survival was inactive: 123%.
